# In PubChem BioAssay AID1159614 (National Center for Advancing Translational Sciences (NCATS), 2016):
# Among all 45,000 compounds or so, about 65 (0.1%) were called active. Calls come from the whole dose curve; as a rule, active = well fitted activation curve with a large enough effect; inconclusive = small, poorly fitted or top-dose-only effect; inactive = no such curve, though single readings can be large or run the other way. The list shows a part of the results.
# Target: Galactocerebrosidase (Homo sapiens) (UniProt P54803)
# Chain of UniProt P54803 (P54803 whole entry, looked up): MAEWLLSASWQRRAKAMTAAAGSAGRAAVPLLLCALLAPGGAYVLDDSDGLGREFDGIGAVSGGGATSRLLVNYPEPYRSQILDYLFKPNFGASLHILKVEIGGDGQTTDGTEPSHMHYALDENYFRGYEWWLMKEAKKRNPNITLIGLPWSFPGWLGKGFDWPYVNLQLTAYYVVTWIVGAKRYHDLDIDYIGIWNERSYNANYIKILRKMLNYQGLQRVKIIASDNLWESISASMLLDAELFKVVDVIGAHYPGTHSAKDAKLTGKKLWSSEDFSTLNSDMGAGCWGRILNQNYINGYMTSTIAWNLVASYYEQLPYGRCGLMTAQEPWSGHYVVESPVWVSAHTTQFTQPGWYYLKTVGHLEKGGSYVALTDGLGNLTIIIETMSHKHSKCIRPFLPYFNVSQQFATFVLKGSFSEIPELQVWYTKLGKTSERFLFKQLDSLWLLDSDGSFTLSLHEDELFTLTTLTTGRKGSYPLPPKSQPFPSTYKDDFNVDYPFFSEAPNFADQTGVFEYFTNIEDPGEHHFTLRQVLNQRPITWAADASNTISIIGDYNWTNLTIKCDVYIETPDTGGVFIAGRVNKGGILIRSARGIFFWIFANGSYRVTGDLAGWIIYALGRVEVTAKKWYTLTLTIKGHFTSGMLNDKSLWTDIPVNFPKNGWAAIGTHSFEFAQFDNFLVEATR
# Experiment: A Novel Cell-Based Assay to Identify Small Molecules for B -Galactocerebrosidase; note: 0% is about no effect; nearly all actives have a fitted effect of over 65% in size
# Details: 145M-Twi-hGALC-G270D cells, HMU-beta-Gal fluorescence, 48 h; series mostly up to 57.5 µM; activation: at the top concentration
# Summary of the method: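 qHTS, 1536-well; 145M-Twi-hGALC-G270D cells (WT line also made) in DMEM/F12 + 10% FBS; compound incubation on live cells; HMU-β-gal 0.1 mM final, pH 5.2, NaTC; carbonate stop; fluorescence increase = enhanced residual activity.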
row,Compound,activation
1,COc1ccc(CNC(=O)CCC2N=C3c4ccccc4N=C(SCC(=O)NCCc4ccc(OC)c(OC)c4)N3C2=O)cc1 (configuration not stated),inactive: -15.5%
2,COc1cccc(CNC(=O)c2sc3nc[nH]c(=O)c3c2C)c1,inactive: -6.73%
3,CN(C)CCCSc1ccccc1NC(=O)/C=C/c1ccccc1,inactive: 25.3%
4,CC(C)OC(=O)c1c(NC(=O)c2cccc(C(F)(F)F)c2)sc2c1CCCC2,inactive: -12.3%
5,O=C1CC(c2ccccc2)Sc2ccccc2N1Cc1ccccc1F (configuration not stated),inactive: -2.77%
6,Cc1cccc(C)c1OCCn1c(CCNC(=O)C2CCCCC2)nc2ccccc21,inactive: -20%
7,COc1ccc(C2Nc3ccccc3-c3cc(C)nn32)c(OC)c1 (configuration not stated),inactive: -10.5%
8,COc1ccc(C)c2sc(NC(=O)c3ccc(S(=O)(=O)N4CCOCC4)cc3)nc12,inactive: -7.14%
9,COc1ccccc1CNC(=O)C(=O)NCC(c1ccco1)S(=O)(=O)c1ccc(F)cc1 (configuration not stated),inactive: -8.39%
10,COc1ccc(C(=O)Oc2c(Sc3ccccc3)c(C)nn2-c2ccccc2)c(OC)c1,inactive: -13.1%
11,COc1cccc(N2CCN(C(=O)c3cnc4c(-c5ccc(F)cc5)c(C)nn4c3C)CC2)c1,inactive: -15.8%
12,CCN(CC)S(=O)(=O)c1ccc2c(c1)N(CC(=O)Nc1ccc(Cl)cc1)C(=O)C1CCCN21 (configuration not stated),inactive: -15%
13,CC(C)(C)c1ccc(C(=O)NCC(c2ccco2)S(=O)(=O)c2ccccc2)cc1 (configuration not stated),inactive: -14.5%
14,COC(=O)c1ccccc1NS(=O)(=O)c1cc2c3c(c1)CC(=O)N3CCC2,inactive: -11.6%
15,CC1=C(C(=O)Nc2ccccc2)C(c2ccccn2)n2nc(SCc3ccccc3)nc2N1 (configuration not stated),inactive: -21.2%
16,Cc1ccc2c(c1)C(c1ccccc1)N(C(=O)COc1ccc(Cl)cc1Cl)CC(=O)N2 (configuration not stated),inactive: -8.1%
17,Cc1ccc(-n2nc(C)c3c(C(=O)Nc4ccccc4C(F)(F)F)cc(C)nc32)cc1,inactive: -6.45%
18,Cc1c(Cl)ccc2sc(N3CCN(C(=O)CCS(=O)(=O)c4ccc(F)cc4)CC3)nc12,inactive: -32.4%
19,COc1ccc(-c2nc3ccccc3n2Cc2ccccc2)cc1,inactive: -17.1%
20,CCCCCOc1ccc(NC(=O)Cn2c(-c3nonc3N)nc3ccccc32)cc1,inactive: -7.19%
21,CCOc1ccc2nc(N(Cc3cccnc3)C(=O)c3cccs3)sc2c1,inactive: -11.2%
22,COc1cccc(-c2nc(Cn3c(=O)cc(C)c4c(C)nn(-c5ccccc5)c43)c(C)o2)c1OC,inactive: -8.2%
23,COc1cccc(C(=O)Nc2nc(-c3nnn(-c4ccccc4C(F)(F)F)c3C)ns2)c1,inactive: 5.83%
24,COc1cccc(CNC(=O)Cn2nc(C)n3c(cc4cc(C)ccc43)c2=O)c1OC,inactive: -7.28%

row,Compound,activation
1,CCSc1nc(-c2cccc(Cl)c2)nc2c1Cc1c(CO)cnc(C)c1O2,inactive: -7.82%
2,CCCN(C(=O)c1cc2c(=O)oc3ccc(C)cc3c2s1)c1ccc(OCC)cc1,inactive: 3.18%
3,CCCCN1C(=O)C(O)(CC(=O)c2ccc(CC)cc2)c2cc(Br)ccc21 (configuration not stated),inactive: -7.59%
4,CC(C)CN(C(=O)c1cccc(S(=O)(=O)N2CCCCC2)c1)C1CCS(=O)(=O)C1 (configuration not stated),inactive: -24.7%
5,Cc1ccc2nc(Nc3cccc(Cl)c3C)c(-n3nc(C)cc3C)nc2c1,inactive: -17.1%
6,Cc1c(-c2nc(-c3ccc4c(c3)OCO4)no2)nnn1-c1ccc(Br)cc1F,inactive: -9.19%
7,Cc1ccccc1NC(=O)Cn1c(SCC(=O)Nc2ccc(F)cc2)nc2ccccc21,inactive: -10.7%
8,CCOC(=O)c1ccc(NC(=O)Cn2c(=O)n(-c3ccc(C)cc3)c(=O)c3c2cnn3C)cc1,inactive: -14%
9,O=C(O)c1ccc(CNCc2ccc(Cl)cc2)s1,inactive: 0.614%
10,CCOC(=O)c1c(NC(=O)c2nc(SCC)ncc2Cl)sc(C(C)=O)c1C,inactive: -25.5%
11,O=C(COc1ccccc1Cl)OCc1cc(=O)n2nc(-c3cccs3)sc2n1,inactive: -13.7%
12,Cc1ccc(CNC(=O)Cc2c(C)c3cc4c(C)coc4cc3oc2=O)cc1,inactive: -6.44%
13,CCC(=O)N1CCc2cc(Br)cc(S(=O)(=O)CCC(=O)N3CCN(c4cccc(C(F)(F)F)c4)CC3)c21,inactive: -24.7%
14,O=[N+]([O-])c1cc(-c2nc(-c3ccccc3)no2)ccc1N1CCCCC1,inactive: -15.3%
15,Cc1ccc(NC(=O)C2CCCN(c3nnc(C)c4c(C)n(-c5ccccc5)nc34)C2)c(Cl)c1 (configuration not stated),inactive: -12.8%
16,Cc1ccc(S(=O)(=O)Cc2ccc(C(=O)N3CCN(c4cccc(C)c4C)CC3)o2)cc1,inactive: -14.2%
17,CCC(Cn1nnc2ccccc2c1=O)NC(=O)Nc1cccc(C)c1C (configuration not stated),inactive: -9.45%
18,COc1ccc(C(=O)OCc2cc(=O)n3nc(-c4cccs4)sc3n2)cc1,inactive: -18.5%
19,O=C(Cn1c(=O)n(Cc2ccco2)c(=O)c2ccccc21)Nc1ccc(Cl)cc1Cl,inactive: -12.2%
20,CC1=C(C(=O)Nc2ccccc2)C(c2ccncc2)n2nc(SCc3ccccc3Cl)nc2N1 (configuration not stated),inactive: 7.78%
21,CCOC(=O)c1cc(S(=O)(=O)NCc2ccccc2)[nH]n1,inactive: -2.73%
22,CC(C)(C)c1ccc(S(=O)(=O)NCc2ccc3c(c2)CCN3C(=O)c2ccccc2)cc1,inactive: 3.21%
23,COc1cc(-c2noc(-c3ccc(N4CCN(C)CC4)c([N+](=O)[O-])c3)n2)cc(OC)c1OC,inactive: -13.4%
